{"source": "paper PMC12136788", "binders": {"B1": {"name": "chr12:39763582:39763583:-_ENSG00000139116_ENST00000544797|hu_mus|hu_hu_hu_mus_False|48_88 (ssRNA)", "RNA": "GGGAGUUCUACAGUCCGACGAUCCUCUAGGAACUGGGCAUUCACUUUAAAAUCUGGAGGGGGCAGCCCGUUUUUAAUCGCUGAGGUUUUUUUUUCUUCAAUACUCUUGAACAGGUGUCUAACAGCACGAGAGAUGAUGCCCUGCAACAGAGGAUUGAGCAUCA"}, "B2": {"name": "chr18:35748043:35748044:+_ENSMUSG00000037236_ENSMUST00000166793|perfect_dup|FALSE|FALSE (ssRNA)", "RNA": "GGGAGUUCUACAGUCCGACGAUCUGUAUAAAAGAGUGAACACAGCUUACAGUAAAACCCUGUUUUAGGUAUCACAUAGUCUAUACCAACAGGAACAUUGGGCUGAUAUGGUCCAAUUCUAUACUCAUCUGGGAUUGUAUAGUCCAACAGAGGAUUGAGCAUCA"}, "B3": {"name": "67934596_67934716_127_5pUTR_ENSMUSG00000079614_ENSMUST00000025421|mouse|control|control (ssRNA)", "RNA": "GGGAGUUCUACAGUCCGACGAUCACAUCGUGGAUGAGGUCCUUGUGGUCCGCCGCGAUGCUGCGCGCCACAAACAUGGCCGCCGCCGUCUGCCGGGCCCGCCUCCGAGAGGGCGGCGGUGCGGCCCGCAGCCCCCGGACCACCCAACAGAGGAUUGAGCAUCA"}, "B4": {"name": "chr4:98674826:98674827:-_ENSMUSG00000028556_ENSMUST00000030286|mus_mus|FALSE|FALSE (ssRNA)", "RNA": "GGGAGUUCUACAGUCCGACGAUCGAUCCGCAUGUCCCCAAUUCGGACCGGGAACAUGUGUUCAUCCAGAGCAUUGACAAGAGCAAAGAAUUUGUCUAGAUAAGGGUCUUGUGUAUGAAUGGAUGAAACAGCAACAACUUCAACCAACAGAGGAUUGAGCAUCA"}, "B5": {"name": "chr20:5919097:5919098:-_ENSG00000089195_ENST00000203001|hu_hu|motif|central (ssRNA)", "RNA": "GGGAGUUCUACAGUCCGACGAUCGUUCUUAUUCUUGGGAUAUGAAAAAACAAGUAGUAAUGGCAUUUAAAGUUUAAUUACGGACUGUAUAAUGCCUGAGAACAAAAUUCAGAGCAAUUCUCAAAAGGGUUAAGAGUCAGACUCCAACAGAGGAUUGAGCAUCA"}, "B6": {"name": "chr1:220276048:220276049:+_ENSG00000067704_ENST00000302637|hu_hu|hu_hu_hu_mus_True|78_98 (ssRNA)", "RNA": "GGGAGUUCUACAGUCCGACGAUCGCAAAUUGCCUGGUUGGCUGGAAUUGUCCAAGGUUGUGUGGUCCAAACUAAAACGCUAACAGGGGAUGAGGCAUCUGUAAGAGACUCCAACUUCGGAGGAGGUCUCAGGAGGGGGAAUCUCAACAGAGGAUUGAGCAUCA"}, "B7": {"name": "chr1:220276048:220276049:+_ENSG00000067704_ENST00000302637|hu_hu|hu_hu_hu_mus_True|38_108 (ssRNA)", "RNA": "B6 RNA with U29C, U30A, C33U, G35C, G36A, U42G, U57C, U60G, G100A"}, "B8": {"name": "chr6:108246082:108246083:-_ENSG00000025796_ENST00000369002|hu_hu|FALSE|FALSE (ssRNA)", "RNA": "GGGAGUUCUACAGUCCGACGAUCUGUUUUGGAAACUUUAUAUGCAAGGAAUAAGAACAAUGCCCAUCCUGCAAGCAGAACUAUUUUCUUUACUGUAGGAAUAAUAUUUGGCUGGGGUUUUAAUAACCGUAAACGAUACCACAUCAACAGAGGAUUGAGCAUCA"}, "B9": {"name": "chr3:128198961:128198962:-_ENSG00000179348_ENST00000341105|hu_hu|FALSE|FALSE (ssRNA)", "RNA": "GGGAGUUCUACAGUCCGACGAUCACUGGACCCAAAAAGAGUUUAAAAAUAAAACAAUUAACUCAUCAGCGAGUUAAGCCUAUGCAUUUUUUUAAUAUUUUUUCUUUUGUCUCAGAGUAGGAGGCGAGGGGGUUGAAGGGUUAGCAACAGAGGAUUGAGCAUCA"}, "B10": {"name": "chr6:41757443:41757444:+_ENSG00000214736_ENST00000398881|hu_mus|hu_hu_hu_mus_False|28_58 (ssRNA)", "RNA": "GGGAGUUCUACAGUCCGACGAUCGAACCGUGCAGAGGCAACAUCUCAGCCGACACUGGGGGAUGGGGGGGCAGUGGGAAACUAGGCAGGCAAGGAGAGGGAGUCAACCCAUCUGAACACUCAGGUAGGAUCUUGUGGUCACAGCAACAGAGGAUUGAGCAUCA"}, "B11": {"name": "chr18:56819859:56819860:+_ENSG00000166562_ENST00000588875|hu_mus|hu_hu_hu_mus_True|68_108 (ssRNA)", "RNA": "GGGAGUUCUACAGUCCGACGAUCAACUUUGAUUACUCUGUGAACUAUCGGAAUGUCUCUUCCUUCAACUUUAAAAACAACUAUUUCACCAGCUCUGAUGGGGUCCUCCCGGAAAUUCGUGAGGAACAGCAGAUCUCCUCUGUGCAACAGAGGAUUGAGCAUCA"}, "B12": {"name": "100370835_100370955_3204_3pUTR_ENSMUSG00000008763_ENSMUST00000008907|mouse|control|control (ssRNA)", "RNA": "GGGAGUUCUACAGUCCGACGAUCCAGCAGUUAUGAUAAAUACCAGGUUCAGCAUAUUAUAUGGAGACAACGACUUGAAAAAUAUUCUUCAUGAGAUCAUGCCCCUCAGAGAAAAACUCAAUCUAAACAGAUUUCAAUGCCUAGCAACAGAGGAUUGAGCAUCA"}, "B13": {"name": "chrX:71549400:71549401:+_ENSMUSG00000019087_ENSMUST00000019231|mus_hu|mus_mus_mus_hu_False|8_68 (ssRNA)", "RNA": "GGGAGUUCUACAGUCCGACGAUCGCAGUAGGAAGAGGGAAGCUCUUCAGUCCAGUGCGCUGCAGGGAGAAACAUGAACAACACGGACACCGUCCCACCCUCAACCCCCCCACUGGCACAGGGUCACAUCUGGGUCAUCAAAGACAACAGAGGAUUGAGCAUCA"}, "B14": {"name": "chr4:147104108:147104109:+_ENSG00000164167_ENST00000515311|hu_mus|FALSE|FALSE (ssRNA)", "RNA": "GGGAGUUCUACAGUCCGACGAUCCGAUAAUCCACGCCAGAAUUUAAUUUCACCACAACUGGCCGUCCGAUGAUCUGCUUUAAGAAGUCGCUAGGGGUUUGCUUCCGCAGGCUCAUGUUUAACAACCCUGAUUAGAAACGGGAACAACAGAGGAUUGAGCAUCA"}, "B15": {"name": "chr19:16212804:16212805:+_ENSG00000167460_ENST00000300933|hu_mus|hu_hu_hu_mus_False|58_98 (ssRNA)", "RNA": "GGGAGUUCUACAGUCCGACGAUCAACAAUUCUGGAGAAGAACAUCAAUGUAACAUGGAACAGCAUUAAAGCUCAGUAUUACUAUAUAUGGGCAACAAUGAUCACCCCAGCAUUCUCGCUUGGAAUGCUUAAAGACAAUCUGUUCAACAGAGGAUUGAGCAUCA"}, "B16": {"name": "chr10:61005148:61005149:+_ENSG00000165443_ENST00000486074|hu_hu|FALSE|FALSE (ssRNA)", "RNA": "GGGAGUUCUACAGUCCGACGAUCUGACAUCCUGGGCAUGGUGGUAAACCAGCACCCCAUCUUCUUCUGUACAGGUCAAAAAUUUAUUAUCCUUAGAAUUUAGUUGAGGAAGGCGCUGCUUACAAAAUUCAUCUCCUGGUGAUCCAACAGAGGAUUGAGCAUCA"}, "B17": {"name": "chr6:36694466:36694467:-_ENSMUSG00000029838_ENSMUST00000101534|mus_mus|FALSE|FALSE (ssRNA)", "RNA": "GGGAGUUCUACAGUCCGACGAUCCUCAGCAGUGUCCACAGCUGCCAAGAUGAAAAUCAAUGCCAGGAAGGCAGCUGCAAAUUUUCUACGUUGCUGCUGAUAUUGCUGGGACGACAUUUUUUGGCUUGCAGAGGUCCUCGCUGACAACAGAGGAUUGAGCAUCA"}, "B18": {"name": "chr17:13112271:13112272:+_ENSMUSG00000068039_ENSMUST00000151287|mus_hu|FALSE|FALSE (ssRNA)", "RNA": "GGGAGUUCUACAGUCCGACGAUCAAUUAGGUUUUCAUUGAUAUAACGCACUGCUUCCUUGCAAGCAAGUCGAUAGCCACUAAUAACUGAUGUGGGAUGAAUUUUCUGUUUGACUAAUUCAUCUGCAUUUUUUAGGAGUUCUGCCAACAGAGGAUUGAGCAUCA"}, "B19": {"name": "186332082_186332542_819_CDS_ENSG00000047410_ENST00000367478|human|control|control (ssRNA)", "RNA": "GGGAGUUCUACAGUCCGACGAUCAUUCUGACUAUGUAGCAAUUCCUUUUCUUGCUCCAAGCGUUUUUCUCGAUACUUAACAGAAACAUCAGAAGCUUGAAGUUCAUCCAAUUUUAACUGAAGUUCACCCUUUGUUGUAUUGCUCAACAGAGGAUUGAGCAUCA"}, "B20": {"name": "135892894_135896144_2817_CDS_ENSMUSG00000039959_ENSMUST00000060311|mouse|control|control (ssRNA)", "RNA": "GGGAGUUCUACAGUCCGACGAUCGGCCUGGUUCACUCCUCGAGAGGCCUGCUGCAGCUGGGUCAGAUUGAGGCUGCCCUUGUUCGCUUUCACCUUGGAUGCAGCCACGAGCUGGGCAGUACUGGCAGCAAUCUCGCGUGAACACAACAGAGGAUUGAGCAUCA"}, "B21": {"name": "chr16:37881740:37881741:+_ENSMUSG00000034158_ENSMUST00000078717|mus_hu|motif|central (ssRNA)", "RNA": "GGGAGUUCUACAGUCCGACGAUCCUGCAAACCAUCAGCCAAAUGUGAAACUAUCAUUCACAAAUUAUGUUAAAAUAAUCGGAACAUGGGACUGGACUCAUUCUUGCUGAAUGGGUAGAUGAAACACAAAAUGUUUUAUAUCAUCAACAGAGGAUUGAGCAUCA"}, "B22": {"name": "chr13:3555642:3555643:+_ENSMUSG00000021218_ENSMUST00000059515|mus_mus|motif|central (ssRNA)", "RNA": "GGGAGUUCUACAGUCCGACGAUCAUCAAACUUCUUAUACACAUCUCUCAUGGAGGUCUUCUUAGGAUCAACACCCUCGAAAGUUCGGGGAUCUUUUUCAUCAAAGUUGGCAACAUAAACCAGGAACUUCCUGAAACGGCGUUUCAACAGAGGAUUGAGCAUCA"}}, "note": "Substitutions are numbered along the chain they refer to. The list shows a part of the results.", "data": [{"target": "T1, UNK ZnF1-3 (human, UniProt Q9C0B0 31-174)", "T1 sequence": "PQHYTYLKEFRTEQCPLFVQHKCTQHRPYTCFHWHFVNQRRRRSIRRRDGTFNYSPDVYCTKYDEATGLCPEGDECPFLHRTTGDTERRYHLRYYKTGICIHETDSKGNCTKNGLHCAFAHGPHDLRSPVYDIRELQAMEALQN", "assay": "nsRBNS (natural sequence RNA bind-n-seq); RBNS binding buffer (assumed for nsRBNS): 25 mM Tris pH 7.5, 150 mM KCl, 3 mM MgCl2, 0.01% Triton X-100, 500 ug/ml BSA, 20 U/ml SUPERase-In, 4 C; UNK is unkempt and MSI1 is Musashi-1; names of the RNAs are library labels; protein concentration not given here; high values mean tight binding", "units": {"binding signal": "enrichment R"}, "values": [{"binder": "B1", "binding signal": 1.91}, {"binder": "B2", "binding signal": 0.418}, {"binder": "B3", "binding signal": 0.545}, {"binder": "B4", "binding signal": 1.39}, {"binder": "B5", "binding signal": 0.758}, {"binder": "B6", "binding signal": 1.45}, {"binder": "B7", "binding signal": 2.31}, {"binder": "B8", "binding signal": 0.69}, {"binder": "B9", "binding signal": 1.61}, {"binder": "B10", "binding signal": 2.22}, {"binder": "B11", "binding signal": 0.655}, {"binder": "B12", "binding signal": 1.35}, {"binder": "B13", "binding signal": 1.66}, {"binder": "B14", "binding signal": 1.12}, {"binder": "B15", "binding signal": 1.02}, {"binder": "B16", "binding signal": 1.36}, {"binder": "B17", "binding signal": 0.8}, {"binder": "B18", "binding signal": 0.502}, {"binder": "B19", "binding signal": 0.584}, {"binder": "B20", "binding signal": 0.814}, {"binder": "B21", "binding signal": 0.893}, {"binder": "B22", "binding signal": 0.875}]}]}
